Measured values reported in paper PMC12136788.
This is one part of the list.

T1: UNK ZnF1-6 (called full-length) (human, UniProt Q9C0B0 30-357)
T1 sequence: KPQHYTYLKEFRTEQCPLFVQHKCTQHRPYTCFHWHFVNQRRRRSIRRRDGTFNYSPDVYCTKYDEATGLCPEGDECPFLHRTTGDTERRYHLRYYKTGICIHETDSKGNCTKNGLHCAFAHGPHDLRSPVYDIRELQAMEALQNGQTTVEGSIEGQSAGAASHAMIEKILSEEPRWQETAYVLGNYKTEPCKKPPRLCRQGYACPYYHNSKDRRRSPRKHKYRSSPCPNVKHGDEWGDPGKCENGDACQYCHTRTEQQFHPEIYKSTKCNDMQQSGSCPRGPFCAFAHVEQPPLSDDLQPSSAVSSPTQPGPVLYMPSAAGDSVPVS

B1: chr7:6690371:6690472:-|3pUTR|ENSG00000164631|msi1|FALSE|bound_elsewhere (ssRNA)
RNA: GGGAGUUCUACAGUCCGACGAUCUGAAAAAAAAAAAAGAAAUAGAAGAUUCCUGCUGUGAAUAAACAUACUUCUUGUGUAAAUAGAAACUGUAAAGUCAUCAGGAUAGCUAGUUAAGUCGGUAACCUUAAACUCAUGUAAGCACAACAGAGGAUUGAGCAUCA
B2: chr9:132670296:132670397:+|5pUTR|ENSG00000125484|msi1|total|mutant (ssRNA)
RNA: GGGAGUUCUACAGUCCGACGAUCCCUCCCCUUUACCGCCCCGUGCGUUUCCUCAGCACUUCCGGAACUAAAGCCUGUCUGGGCCGCUCCCUAACAGGCUCUGGAGCUCAAUCCCUGGGCAGGGAAAAGGGGGUCCUCGGGGCUCAACAGAGGAUUGAGCAUCA
B3: ENSG00000070961:be:win_351|CDS|ENSG00000070961|bound_else_gene|NA|bound_elsewhere_windowed (ssRNA)
RNA: GGGAGUUCUACAGUCCGACGAUCAGCCAUAGUAUCAUUGGGCCUUUCUUUUUAUCAGCCUCCAGAAGGGGAUAAUGCACUUUGUGGAGAAGUUUCUGUUGGGGAGGAAGAAGGUGAAGGUGAAACUGGUUGGAUUGAAGGAGCCAACAGAGGAUUGAGCAUCA
B4: chr16:67395001:67395280:-|CDS|ENSG00000159714|control|control|control (ssRNA)
RNA: GGGAGUUCUACAGUCCGACGAUCCCGGAUCCGACCCCAGGUAGGAGGGACUGUGCUGGGCCUCCGGUCCAGGUGGAGUGGGAUAGAAAGAAGCCUCUACCCUGGCGCUCGCCUCUGCUUCUUUUGGCGAUGUGGGGCCCUCAGCAACAGAGGAUUGAGCAUCA
B5: ENSG00000070961:be:win_801|CDS|ENSG00000070961|bound_else_gene|NA|bound_elsewhere_windowed (ssRNA)
RNA: GGGAGUUCUACAGUCCGACGAUCGGAAGGCUCUGGAAGAAUGGUAGUUACAGCUGUAGGUGUAAAUUCUCAAACUGGAAUUAUCUUUACCUUACUUGGAGCUGGAGGUGAAGAGGAAGAGAAGAAAGAUGAGAAGAAAAAGGACAACAGAGGAUUGAGCAUCA
B6: ENSG00000198589:be:win_5251|CDS|ENSG00000198589|bound_else_gene|NA|bound_elsewhere_windowed (ssRNA)
RNA: GGGAGUUCUACAGUCCGACGAUCGUGGUUUCCUCAGUAGAUUCAGCCCAAGCCUCAGAUAUGGGAGGAGAAUCACCAGGCAGUAGAUCAUCUAAUGCAAAAUUGCCCUCAGUUCCAACAGUUGAUUCAGUUUCACAAGAUCCGCAACAGAGGAUUGAGCAUCA
B7: chr2:182777146:182777247:+|3pUTR|ENSG00000077232|msi1|FALSE|unique (ssRNA)
RNA: GGGAGUUCUACAGUCCGACGAUCUGAAGAUGAAGAAAAAGUUUAAAAGAAAUUCUGACAGAUGACAUCAGAAGACACCUAUUUAGAAUGUUACAUUUAUGAUGGGAAUGAAUGAACAUUAUCUUAGACUUGCAGUUGUACUGCCAACAGAGGAUUGAGCAUCA
B8: chr13:113097702:113097803:+|3pUTR|ENSG00000126217|unk|total|mutant (ssRNA)
RNA: GGGAGUUCUACAGUCCGACGAUCAAAGAAAAUACAAAGAUGCAGUUUCUGCAGGGUGUGGCGUGGACCAGUGCUGCCGACCACCGCUCAGAGAGCCCUGCCCCUGCCUCACUGCACUGCAGCCUCCUCGGAGGCCGCACCUCCCAACAGAGGAUUGAGCAUCA
B9: chrX:15345595:15346132:-|three_prime_utr|ENSG00000165197|control|control|control (ssRNA)
RNA: GGGAGUUCUACAGUCCGACGAUCCAGACCAACCUUCCAUUCACACCAGCUAAGGAGUCCCUGGUUCAUUGAUGGAUGUCUUCUAGCUGCAGAUGCCUCUGCGCACCAAGGAAUGGAGAGGAGGGGACCCAUGUAAUCCUUUUGCAACAGAGGAUUGAGCAUCA
B10: chr12:76027553:76027654:-|3pUTR|ENSG00000139289|msi1|total|mutant (ssRNA)
RNA: GGGAGUUCUACAGUCCGACGAUCCUCCUGAGCCGCUGGGACUACAGGUGAAUGCCACCACGCCCGGCUGAUUUUUGUAUUUUCCGCCGAGAUGGGGUUUCACCACCGUGGUCAGGCUGUUCUCGAACUCCUGACCUCAGGUGACAACAGAGGAUUGAGCAUCA
B11: chr4:177430861:177430962:-|3pUTR|ENSG00000038002|msi1|total|mutant (ssRNA)
RNA: GGGAGUUCUACAGUCCGACGAUCUUUACUAAUUCCUUGUGCAGAGGUGGGUAUGGCAAUCCGAAGUCAAGAAAUGGGUUGUUCCGCUUGGUUUGUUUCCCUAACUUCUGAUUAACUCUCUGUAUGACAACUCUACAGAAGUUGCAACAGAGGAUUGAGCAUCA
B12: chr17:78853230:78853302:-|3pUTR|ENSG00000035862|msi1_unk|total|mutant (ssRNA)
RNA: GGGAGUUCUACAGUCCGACGAUCCUCUUCUCCUAUUUUCAUCCUGCAAGCAACUCAAAAUAUUUAAAAUAAAGUUUACAUUGCCGUUAUUUUCAAAUCUUUGCUUGAUAAGUAUUAAGAAAUAUUGGACUUGCUGCCGUAAUUCAACAGAGGAUUGAGCAUCA
B13: chr1:178442813:178442920:+|CDS|ENSG00000075391|unk|FALSE|unique (ssRNA)
RNA: GGGAGUUCUACAGUCCGACGAUCAAAGCAGACAAUAUUUUCUGGGGCGAACAUUUUGAAUUCUUCAGCCUUCCACCUCUUCAUAGUAUCACAGUUCACAUUUACAAGGAUGUGGAAAAAAAGAAAAAAAAGGACAAGAAUAAUCAACAGAGGAUUGAGCAUCA
B14: chr11:69651622:69651678:+|3pUTR|ENSG00000110092|msi1_unk|FALSE|overlapping (ssRNA)
RNA: GGGAGUUCUACAGUCCGACGAUCUUAUACCCCAAUAAUCAACUCGUUUUUAUAUUAAUGUACUUGUUUCUCUGUUGUAAGAAUAGGCAUUAACACAAAGGAGGCGUCUCGGGAGAGGAUUAGGUUCCAUCCUUUACGUGUUUACAACAGAGGAUUGAGCAUCA

Target: T1, UNK ZnF1-6 (called full-length)
Test: nsRBNS (natural sequence RNA bind-n-seq); RBNS binding buffer (assumed for nsRBNS): 25 mM Tris pH 7.5, 150 mM KCl, 3 mM MgCl2, 0.01% Triton X-100, 500 ug/ml BSA, 20 U/ml SUPERase-In, 4 C; UNK is unkempt and MSI1 is Musashi-1; names of the RNAs are library labels; protein concentration not given here; high values mean tight binding

Binder | binding signal
B1 | 1.02 enrichment R
B2 | 0.632 enrichment R
B3 | 0.716 enrichment R
B4 | 0.868 enrichment R
B5 | 0.826 enrichment R
B6 | 0.672 enrichment R
B7 | 0.865 enrichment R
B8 | 0.629 enrichment R
B9 | 0.639 enrichment R
B10 | 0.576 enrichment R
B11 | 0.488 enrichment R
B12 | 0.774 enrichment R
B13 | 0.818 enrichment R
B14 | 0.809 enrichment R
